Measured values: PubChem BioAssay AID1347120 (National Center for Advancing Translational Sciences (NCATS), 2019)
Out of some 390,000 compounds screened, about 930 (0.24%) were called active. The inconclusive results got no clear call from the source; some entries with a clear call stand among them for comparison. The call rests on the fitted dose curve; in most records, active means well fitted activation curve with a large enough effect; inconclusive means small, poorly fitted or top-dose-only effect; inactive means no such curve, though single readings can be large or run the other way. Potencies beside an inconclusive call are fits to weak or partial responses and may not hold up.

assay: qHTS for Suppressors of FUS Proteinopathy: Primary screen using FUS-linked yeast assay; further: nearly all actives have a fitted effect of over 55% in size;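 on growth rescue (activation): plate controls were DMSO vehicle for no effect and reference control for full effect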; details: S. cerevisiae FUS-expressing, OD600, 24 h; Potency: growth rescue; growth rescue (activation): at 76.6 µM (top of the series)
Summary of the method: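 Yeast expressing FUS under galactose induction, OD 0.005 in 2% galactose medium; compounds in a dilution series, 24 h at 30C. Growth rescue by absorbance at 600 nm; CP55940 positive control, DMSO negative.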
Potency means the concentration at half of the fitted maximal effect; tags describe the fitted curve by direction and shape.

| SMILES | Potency | growth rescue (activation) |
| --- | --- | --- |
| CSc1nc(C(=O)N2CCc3c([nH]c4ccccc34)C2c2ccccn2)cs1 (centres undefined) | inconclusive: 44.7 µM [activator, single point] |  |
| Cc1ccc(CN2C(=O)CCC2C(=O)NCc2ccc3c(c2)OCO3)cc1 (centres undefined) |  | inactive: 3.28% |
| C#CCOCCOCCOCCNc1nc(N2CCN(C(=O)CCCCCCCCCCNC(=O)[C@H]([C@@H](C)CC)n3cc(CCCCN=C(N)N)nn3)CC2)nc(N2CCN(C(=O)CCCCCCCCCCNC(=O)[C@H](CO)n3cc(CCCSC)nn3)CC2)n1 | active: 3.16 µM |  |
| CCOC(=O)c1ccc(NC(=O)CC2C(=O)N(c3cccc(OC)c3)C(=O)N2C2CCCCC2)cc1 (centres undefined) | inconclusive: 31.6 µM [activator, partial curve, poor fit] |  |
| COc1ccc([C@@H]2[C@@H]3C(=O)N(C(C)(C)C)C(=O)[C@@H]3[C@]3(CC(C)C)C(=O)N(c4ccccc4)C(=O)N23)cc1 | inconclusive: 25.1 µM [activator, single point] |  |
| CC1=C(C(=O)Nc2ccc([N+](=O)[O-])cc2)C(c2cccc(C(F)(F)F)c2)NC(=S)N1c1ccccc1 (centres undefined) | active: 10 µM |  |
| Cc1cc(C)cc(NC(=O)C2CCN(S(=O)(=O)c3ccc4c(c3)NC(=O)C(C)S4)CC2)c1 (centres undefined) | inconclusive: 11.2 µM [activator, partial curve, poor fit] |  |
| O=C(O)CN1C(=O)/C(=C\C(Br)=C\c2ccccc2)SC1=S |  | inactive: 32.6% |
| COc1cccc(CSc2nc3n(n2)C(c2cccs2)C(C(=O)Nc2ccccc2C)=C(C)N3)c1 (centres undefined) |  | inactive: -22.2% |
| CCOC(=O)c1ccc(NC(=O)c2c(NCc3cccs3)sc3c2CCCCC3)cc1 | inconclusive: 20 µM [activator, partial curve, poor fit] |  |
| O=S(=O)(NCc1nc2cccnc2n1Cc1ccc(F)cc1)c1ccc2c(c1)CCCC2 |  | inactive: -7.41% |
| COC(=O)c1[nH]c2cccc(C)c2c1NC(=O)CN1CCCc2ccccc21 | inconclusive: 11.2 µM [activator, partial curve, poor fit] |  |
| COc1ccc(Nc2nc(N)nc(CSC(=S)N3CCCCC3C)n2)cc1 (centres undefined) | inconclusive: 15.8 µM [activator, partial curve, poor fit] |  |
| O=C(N=c1ccn(-c2nc3ccccc3nc2NS(=O)(=O)c2ccccc2)cc1)c1ccccc1Cl | active: 25.1 µM |  |
| COc1ccccc1NC(=O)N(C)C[C@@H]1OCc2ccccc2-c2c(n(C)c3ccccc23)C(=O)N([C@H](C)CO)C[C@@H]1C | inconclusive: 22.4 µM [activator, single point] |  |
| CC(=O)c1sc(-c2ccc(F)cc2)cc1NS(=O)(=O)c1ccc(C)cc1 |  | inactive: 5.62% |
| Oc1ccc(-c2csc(Nc3ncccn3)n2)cc1O | inconclusive: 6.31 µM [activator, partial curve] |  |
| CCOC(=O)[C@H]1[C@H]2COc3ccc(Br)cc3[C@@H]2N2C(=O)CN(Cc3ccco3)C(=O)[C@@]12C | inconclusive: 28.2 µM [activator, single point] |  |
| COc1ccc(-n2c(SCC(=O)Nc3ccccc3-c3ccccc3)nnc2-c2cccnc2)cc1 | inconclusive: 20 µM [activator, partial curve, poor fit] |  |
| COc1ccc(OCC2c3cc(OC)c(OC)cc3CCN2C(=O)c2ccc(F)cc2)cc1 (centres undefined) | inconclusive: 50.1 µM [activator, single point] |  |

| SMILES | Potency | growth rescue (activation) |
| --- | --- | --- |
| COc1ccc(C(=O)Nc2cc(-c3cccc(C)c3)nn2-c2ccccc2)cc1 | inconclusive: 22.4 µM [activator, partial curve, poor fit] |  |
| CCOC(=O)N1CCC(NC(=O)c2cc3c(=O)n(C)c4ccccc4c3n2C)CC1 | inconclusive: 14.1 µM [activator, partial curve] |  |
| C=Cc1ccc(Cn2c(C(=O)O)c(CNCc3cccs3)c3ccc(C)cc32)cc1 | inconclusive: 17.8 µM [activator, single point] |  |
| O=C(CCSCc1cnn(-c2ccccc2)c1-n1cccc1)NCc1ccccc1F | inconclusive: 28.2 µM [activator, single point] |  |
| CCOc1ccc(NC(=O)c2cc3c(-c4ccccc4F)nn(C)c3s2)cc1 |  | inactive: -6% |
| Cc1nc(NC(=O)CC(C)C)sc1-c1csc(Nc2ccc(Cl)cc2)n1 | inconclusive: 35.5 µM [activator, single point] |  |
| CCn1c(SCc2nc3ccccc3s2)nnc1-c1cccs1 | inconclusive: 31.6 µM [activator, single point] |  |
| Cc1ccc(CN2C(=O)c3ccccc3C2c2nnnn2-c2ccc3c(c2)OCCO3)cc1 (centres undefined) | inconclusive: 50.1 µM [activator, single point] |  |
| CC(=O)C1=C(O)C(=O)N(CCc2c[nH]c3ccccc23)C1c1ccccc1 (centres undefined) |  | inactive: 28.6% |
| CC(C)(C)OC(=O)N1CCC(NC(=O)c2[nH]cnc2C(=O)Nc2cccc(Cl)c2)CC1 |  | inactive: -33% |
| COC(=O)Cn1c(CN2CCN(C(=O)c3ccco3)CC2)nc2c1c(=O)n(C)c(=O)n2C |  | inactive: -14.5% |
| COc1ccc(NCc2nnc(SCC(=O)c3ccc(C)cc3)o2)cc1 | inconclusive: 22.4 µM [activator, single point] |  |
| Cc1ccc(-c2cc(C(=O)Nc3ccccc3C)c3ccccc3n2)o1 |  | inactive: 27.5% |
| CC(=O)c1sc(N/N=C\c2ccccc2O)nc1C | inconclusive: 35.5 µM [activator, single point] |  |
| Cc1ccc(S(=O)(=O)N(C)C[C@@H]2OCc3ccccc3-c3c(n(C)c4ccccc34)C(=O)N([C@H](C)CO)C[C@@H]2C)cc1 | inconclusive: 22.4 µM [activator, single point] |  |
| CCOc1ccc(CNC(=O)CCS(=O)(=O)c2cc3c4c(c2)CCN4C(=O)CC3)cc1OC |  | inactive: 5.2% |
| CCC(CC)c1nnc(NC(=O)COc2ccc3c(C)cc(=O)oc3c2)s1 | inconclusive: 44.7 µM [activator, partial curve, poor fit] |  |
| COC(=O)c1c(-c2ccccc2)[nH]c(-c2nccc3ccccc23)c1C(=O)OC |  | inactive: 16% |
| COc1ccc(NC(=O)CN(C)C(=O)c2cn(-c3ccccc3)nc2-c2cccs2)cc1 | inconclusive: 14.1 µM [activator, partial curve] |  |
